The values below come from the supplement of paper PMC11417369.

The list shows a part of the results.

This assay concerns PfSIP2 AP2 domain 1 (GST-tagged). The experiment in a line: gcPBM binding intensity (ln(normalized median fluorescence intensity)); higher = stronger DNA binding. The essentials: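 After 1 h on an Agilent 4 × 180k array of primer-extended double-stranded 36-bp intergenic genomic probes and negative controls, bound GST-tagged P. falciparum DNA-binding domains were detected with Alexa488 anti-GST antibody and scanned at 488 nm. The domains had been expressed in E. coli, and binding took place in 1× PBS with 1% milk, 0.2 mg/ml BSA, 0.5% salmon testes DNA and 0.03% Triton X-100. Binding intensity is the highest Masliner-normalised natural-log median intensity across replicate spots of either probe orientation.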
As to “TGCTTCTTTTAAAAACATGTTTGTATTCATTTTATA [CACACA_negctrl_site1627]”, the “gcPBM binding intensity (ln)” value was 7.33.
For the sequence “ACAAAAAGTTACATACGTACGTAAAATTGTAATAAA [XGTACX_site2358]”, the “gcPBM binding intensity (ln)” value was found to be 6.96.
The result for “ATAATACCATTAATTTGTACATATATATTATATATA [XGTACX_site4345]” reads 7.12; that for “ATTATATTATATATATGTACATATATATATCATAAT [XGTACX_site1]”, 7.04.
As to “TGTAATATATGTATTGCACACCTATAACCATTATTT [CACACA_site8422]”, the “gcPBM binding intensity (ln)” value worked out at 7.17.
Then “TATAAGTGCCGTTATACACACGTTATATAAATATTA [CACACA_site4401]”, with 7.06; and “ATAATTATATTTAGTGGTACTACTTTTGATAATTAG [XGTACX_site6562]”, with 6.79; and “AAATGTGAAAAAGAGTGTACCCGACTTGAAATTAAG [XGTACX_site8621]”, with 7.25.
Then “AGTAGAATATCCCCTACACACCCAAGTAATTTACAA [CACACA_site6708]”, with 7.09; and “AATTAAAAGTGAAGAGTGCATAGAATTTTTTACTTT [GTGCAC_site9973]”, with 8.35.
The result for “TTTAATTTTCAATGGCGTACATATAAAATATTATAT [XGTACX_site1672]” reads 7.43; that for “GATGAATAATATGTATGTACATATGCATTATGATGT [XGTACX_site7655]”, 7.43.
On to “ATATGCACTTTTTGCACACGTATGAATAACAAAATA [CACACA_site1810]”, for which the “gcPBM binding intensity (ln)” value came out at 9.53.
The result for “ACATATAGATAAATATGTACATATATATATATATAT [XGTACX_site1806]” reads 9.36; that for “TTTTCTGTGTTTACATGTACGAAAGATTAATATTAT [XGTACX_site5214]”, 7.13.
Then “ATTTGATAGACACATGCACACATGCAATACTTTATT [CACACA_site5633]”, with 8.13.
The result for “TTATCATATCATGGAAGTACAAATAAAATATATAAC [XGTACX_site1608]” reads 7.24; that for “TACATACATACATACACACACATATAGATTTATATA [CACACA_site6999]”, 7.82.
For “TATATAAAAATATACACACACAAATGTATATATATA [CACACA_site220]”, the “gcPBM binding intensity (ln)” value is 8.08.
Then “ATATATATATATATATCACACATTAATAATATATAT [CACACA_site5081]”, with 9.16; and “ATAATTTTGTATAATTGTACATTATTTTAAATAAAT [XGTACX_site7952]”, with 6.78; and “AAAACATAACATTGTTGTACTACTAATAAAATAAGT [XGTACX_site6149]”, with 7.34.
Then “TCTTTATTATTCGCCACACACATATAAATATAAATA [CACACA_site7441]”, with 7.84; and “TTTTTTTTTTTTTTTAAACACACGGTGTGAAAATTA [CACACA_site3818]”, with 7.02; and “ATCAATCATGGTTTTACACACACATGCATGTGAAAA [CACACA_site1350]”, with 7.05.
On to “ATAATTACATTCCATACACACATATATTTAAAGGTT [CACACA_site7403]”, for which the “gcPBM binding intensity (ln)” value worked out at 7.1.
Then “TTCTTGTTCCTGAAAGTGCATATAACAAAAATAACA [GTGCAC_site9635]”, with 9.52; and “AATGATATATTTAAATGTACACATGAAATATAATAT [XGTACX_site2678]”, with 7.06; and “TTATATTTGATAGTTTGTACATATAATTATTATCAT [XGTACX_site5676]”, with 7.21.
As to “TATCTTCAAGTATGTACACACTATATATAATAAAAT [CACACA_site5368]”, the “gcPBM binding intensity (ln)” value was 7.27.
The result for “ATATATATATATATATGTACATACAATTATATTCTC [XGTACX_site1133]” reads 9.67.
The result for “AATCTTCTTAATTGTAGTACACAATTTATAAACAAA [XGTACX_site8706]” reads 7.6; that for “AAAAATCATTTAAGAACACACAAATATTTCCATTAA [CACACA_site1488]”, 6.74; that for “TACATAAATTTTAATACATGCAAATAAAATATATAA [TGCATGCA_site131]”, 6.94.
The result for “ATAACGAACACTATTACACACATACATACATATGTA [CACACA_site5092]” reads 7.33; that for “AAAAAAAAAAAAAACACACACACATAGACCTCCAAT [CACACA_site3563]”, 7.35; that for TTTTTTGTTACAACAGTGCAAAAAAACCTTAATGTT, 7.84.
Consider “ATAAAAAATATCACATAAAATAAAAAAAGAAAGGAT [XGTACX_negctrl_site294]”, for which the “gcPBM binding intensity (ln)” value was 7.15.
The result for “TATATATATACAGTAGTGCATATATTTAAAATATAT [GTGCAC_site9999]” reads 8.9; that for “TATATATAAAAATATACACACTGTATTATTGTAATA [CACACA_site5959]”, 6.9.
As for “ATATATAAAAATAAATGTACATATTCATATGATGAT [XGTACX_site3411]”, the “gcPBM binding intensity (ln)” value stood at 7.04.
Then “TATATACATACATATTGTACTTATAAAGATTAATTT [XGTACX_site2203]”, with 7.12; and “ATATAAGTATATCTATGTACATACAATATAAATGTA [XGTACX_site2153]”, with 7.04; and “ATCAAAAGAAGACACACACACATACCTATAAATATA [CACACA_site7736]”, with 7.07.
Then “AATAGTTATTCCAGGTGTACATAACATATAATTTAC [XGTACX_site1340]”, with 7.44.
“TTATTATTATTACTTACGCACACTTTTTTTTTTATT [CACACA_site411]”: the “gcPBM binding intensity (ln)” value was 7.
The result for GACAATTATATGTAGGTGCATATACAAATTTTTTAA reads 10.9; that for “ATAGGATATTATTCCTGTACATATATATATATATAT [XGTACX_site2108]”, 8.94; that for “TTTTATTCATCATATTGTACATTCTTGTATTTATAG [XGTACX_site8534]”, 6.88.
Then “ATATACTTACATATTACACACAATATTTTTAAATGG [CACACA_site5916]”, with 6.95; and “CTTTTGCCCAAAAAGGTACACACCACAAAGTACATA [CACACA_site8169]”, with 7.13.
The result for “TATTTATAATTAAATACACACATATATTATAGATTT [CACACA_site6435]” reads 6.88.
Take “TTGTATATACTATACACACACATACATACATACATA [CACACA_site814]”: the “gcPBM binding intensity (ln)” value worked out at 7.21.
Then “ACCCATATTCTTTTTACACACTTGAATAAAAAATAT [CACACA_site4797]”, with 7.51.
In the case of “GAGATATAAAAGTGTACACATATTGTTATCCATATT [CACACA_site5441]”, the “gcPBM binding intensity (ln)” value stood at 7.11.
Then “AATAAAAAATAAAAAAGTACATGATGAAAAGGTTTA [XGTACX_site7615]”, with 6.97; and “TCCCTGATGTTATTTAATATACCATAAAAAAAAAAA [CACACA_negctrl_site1472]”, with 7.22; and “CACACTTTATAATGTTGTACGATACATTATACCAAA [XGTACX_site941]”, with 7.24.
Then “ATCTCAAATATAATAAATTATTAGGTATATATATAT [CACACA_negctrl_site1828]”, with 9.16; and “TATATATATATATATACATGCATACAATTTTATGAG [TGCATGCA_site466]”, with 9.83.
Then “TCTTGTTATAATAATCAATATATGGGTATACTTATG [CACACA_negctrl_site1618]”, with 6.9; and “AAAAGGATTTTTTATACACACACTAACTAATGTATA [CACACA_site2356]”, with 6.87.
For the sequence “AAAAAAATAAATAAGACACACACAAAAAAAAAAAAA [CACACA_site8404]”, the “gcPBM binding intensity (ln)” value turned out to be 6.83.
For “TAAATAATAATAAAATGTACATTATATATGTATATG [XGTACX_site8672]”, the “gcPBM binding intensity (ln)” value amounted to 6.98.
The result for “TTTTTTTTTTTTTTCTGTACTGATACTTATAGAGTT [XGTACX_site4736]” reads 7.01.
Then “AAATAATAAATATATCGTACAAATATCATATATAAA [XGTACX_site2771]”, with 6.79.
The result for “TTTTTTCTTTTTATAACACACAGGTGAAAAATAATA [CACACA_site1850]” reads 7; that for “TCCTGTTGAGAATGGCGTACATATAAATATTATATA [XGTACX_site1841]”, 6.9; that for “TTTCCTCATTTTATCATACACACTTGTTTATATGTG [CACACA_site8202]”, 6.92.
As for “TATTACTTTATATATACACACATATAACATAAATGC [CACACA_site3948]”, the “gcPBM binding intensity (ln)” value turned out to be 7.26.
The result for “CAGGTTCTTATATAGTGTACTATAGACATTCAATTG [XGTACX_site7239]” reads 6.94; that for “CAAACAAATTGTGAAACACACATATATATATATATA [CACACA_site2001]”, 9.59; that for “AACGTATTATTTATCTGTACAAAATAATAACGTATT [XGTACX_site813]”, 6.96.
On to “TTTTGTTTTTTCAATGTGCACTTAGGATGTTTTTAT [GTGCAC_site9565]”, for which the “gcPBM binding intensity (ln)” value stood at 10.6.
Then “TAAATAAAAATACAGTGTACTTTTTTCTATTTAAAA [XGTACX_site3288]”, with 7.5; and “ATCCAAATTAATAATAGTACTTTTAAGTCCTATGTA [XGTACX_site2452]”, with 6.65.
As for “TTGGAGTTCATATGTGGTACACATTTAAATATATTT [XGTACX_site5582]”, the “gcPBM binding intensity (ln)” value is 6.97.
In the case of “ATCATGGAAAAAACAAATGGGCTACATTACCTTTTG [GTGCAC_negctrl_site487]”, the “gcPBM binding intensity (ln)” value amounted to 6.64.
Consider “GATATAAACGTATATGTACATATATATATATATATA [GTGCAC_negctrl_site186]”, for which the “gcPBM binding intensity (ln)” value was determined as 9.67.
Then “ATAATAAATGTCTTCAATGAAGTGGAAATGCTGTTA [TGCATGCA_negctrl_site238]”, with 6.95; and “ATATATACATAGAATTGTACATAATTTATGTTCATT [XGTACX_site7426]”, with 7.1; and “TATATACAAATATGTACACACATTACAGATGTACAT [CACACA_site6586]”, with 7.09.
“TAGAAAAAATAAAATAGTACACATCCAAAAAAAAAA [XGTACX_site7829]”: the “gcPBM binding intensity (ln)” value amounted to 7.29.
The result for “CCAAACAAAAAAAAAAGTACATAAAACACCTATTTG [XGTACX_site5645]” reads 7.13; that for “AATATATAAATATATACACACAAAAACATATATATA [CACACA_site1318]”, 7.39.
The result for “ATAATTAGGGTGTATTTCATTTCATTTCATTTTATT [CACACA_negctrl_site1418]” reads 7.03.
The result for “TAAGTAAAAAATTAAAAAGATTACAGGGGGGGAAGG [XGTACX_negctrl_site491]” reads 8.15.
As to “ATTTTAACGAATATATGTACATAAAAAAAAAAAAGA [XGTACX_site8750]”, the “gcPBM binding intensity (ln)” value stood at 7.25.
Then “GACATAAGATAATTACACATTGTTTCCTCAATAATA [CACACA_negctrl_site1616]”, with 7.
